Measured values as given in US20170107179A1 (Tetraphase Pharmaceuticals, Inc., priority 2010, published 2017).

Legend:
[1] = system: Pseudomonas aeruginosa PA173 (PA170 ΔmexX); experiment: Minimum Inhibitory Concentration (MIC) assay, CLSI broth dilution; set-up: key: A = lower than or equal to lowest MIC among three control compounds; B = greater than lowest MIC among three control compounds, but lower than highest MIC among three control compounds; C = greater than MIC of all three control compounds; details: compared to Sancycline, Minocycline and Tigecycline
Protocol: (§1) Briefly, frozen bacterial strains were thawed and subcultured onto Mueller Hinton Broth (MHB) or other appropriate media (Streptococcus requires blood and Haemophilus requires hemin and NAD). Following incubation overnight, the strains were subcultured onto Mueller Hinton Agar and again incubated overnight. […] Isolated colonies were selected to prepare a starting inoculum equivalent to a 0.5 McFarland standard. The starting inoculum was diluted 1:125 (this is the working inoculum) using MHB for further use. […] .
(§2) The assays were run as follows. Fifty μL of MHB was added to wells 2-12 of a 96-well plate. One hundred μL of appropriately diluted antibiotics was added to well 1. Fifty μL of antibiotics was removed from well 1 and added to well 2 and the contents of well 2 mixed by pipetting up and down five times. Fifty μL of the mixture in well 2 was removed and added to well 3 and mixed as above. Serial dilutions were continued in the same manner through well 12. Fifty μL was removed from well 12 so that all contained 50 μL. Fifty μL of the working inoculum was then added to all test wells. A growth control well was prepared by adding 50 μL of working inoculum and 50 μL of MHB to an empty well. The plates were then incubated at 37° C. overnight, removed from the incubator and each well was read on a plate reading mirror. The lowest concentration (MIC) of test compound that inhibited the growth of the bacteria was recorded.
(§3) The following bacterial strains, listed below, were examined in minimum inhibitory concentration (MIC) assays.

[2] = system: Klebsiella pneumoniae KP457 (2009 ESBL+, CTX-M, OXA); experiment: as above; set-up: key: A = lower than or equal to lowest MIC among three control compounds; B = greater than lowest MIC among three control compounds, but lower than highest MIC among three control compounds; C = greater than MIC of all three control compounds; details: Table 7; class vs MICs of sancycline, minocycline, tigecycline
Protocol: as §1, §2, §3

## CN(C)[C@@H]1C(O)=C(C(N)=O)C(=O)[C@@]2(O)C(O)=C3C(=O)c4c(O)c5c(c(C(F)(F)F)c4C[C@H]3C[C@@H]12)CN(C(C)(C)C)C5 [Compound 112]
[1]
  MIC PA173: B

## CC[C@H](C)N1Cc2c(O)c3c(c(C(F)(F)F)c2C1)C[C@H]1C[C@H]2[C@H](N(C)C)C(O)=C(C(N)=O)C(=O)[C@@]2(O)C(O)=C1C3=O [Compound 113]
[1]
  MIC PA173: B

## CN(C)[C@@H]1C(O)=C(C(N)=O)C(=O)[C@@]2(O)C(O)=C3C(=O)c4c(O)c5c(c(F)c4C[C@H]3C[C@@H]12)CN(C1CC1)C5 [Compound 114]
[1]
  MIC PA173: B

## CN(C)c1c2c(c(O)c3c1C[C@H]1C[C@H]4[C@H](N(C)C)C(O)=C(C(N)=O)C(=O)[C@@]4(O)C(O)=C1C3=O)CN(C(C)(C)C)C2 [Compound 115]
[1]
  MIC PA173: B

## CN(C)[C@@H]1C(O)=C(C(N)=O)C(=O)[C@@]2(O)C(O)=C3C(=O)c4c(O)c5c(c(C(F)(F)F)c4C[C@H]3C[C@@H]12)CN(C1CC1)C5 [Compound 116]
[1]
  MIC PA173: B

## CCC(C)(C)N1Cc2c(O)c3c(c(OC)c2C1)C[C@H]1C[C@H]2[C@H](N(C)C)C(O)=C(C(N)=O)C(=O)[C@@]2(O)C(O)=C1C3=O [Compound 119]
[1]
  MIC PA173: B

## CN(C)[C@@H]1C(O)=C(C(N)=O)C(=O)[C@@]2(O)C(O)=C3C(=O)c4c(O)c5c(c(F)c4C[C@H]3C[C@@H]12)CN(C(C)(C)CF)C5 [Compound 122]
[1]
  MIC PA173: B

## CC(C)N1Cc2c(O)c3c(c(C(F)(F)F)c2C1)C[C@H]1C[C@H]2[C@H](N(C)C)C(O)=C(C(N)=O)C(=O)[C@@]2(O)C(O)=C1C3=O [Compound 126]
[1]
  MIC PA173: B

## CC[C@@H](C)N1Cc2c(O)c3c(c(C(F)(F)F)c2C1)C[C@H]1C[C@H]2[C@H](N(C)C)C(O)=C(C(N)=O)C(=O)[C@@]2(O)C(O)=C1C3=O [Compound 128]
[1]
  MIC PA173: B

## CN(C)[C@@H]1C(O)=C(C(N)=O)C(=O)[C@@]2(O)C(O)=C3C(=O)c4c(O)c5c(c(F)c4C[C@H]3C[C@@H]12)CN(C1CCC1)C5 [Compound 132]
[1]
  MIC PA173: B

## CCCN1Cc2c(O)c3c(c(OC)c2C1)C[C@H]1C[C@H]2[C@H](N(C)C)C(O)=C(C(N)=O)C(=O)[C@@]2(O)C(O)=C1C3=O [Compound 138]
[1]
  MIC PA173: B

## CCCN1Cc2c(O)c3c(c(C(F)(F)F)c2C1)C[C@H]1C[C@H]2[C@H](N(C)C)C(O)=C(C(N)=O)C(=O)[C@@]2(O)C(O)=C1C3=O [Compound 141]
[1]
  MIC PA173: B

## CC[C@@H](C)N1Cc2c(O)c3c(c(OC)c2C1)C[C@H]1C[C@H]2[C@H](N(C)C)C(O)=C(C(N)=O)C(=O)[C@@]2(O)C(O)=C1C3=O [Compound 145]
[1]
  MIC PA173: B

## CC[C@H](C)N1Cc2c(O)c3c(c(OC)c2C1)C[C@H]1C[C@H]2[C@H](N(C)C)C(O)=C(C(N)=O)C(=O)[C@@]2(O)C(O)=C1C3=O [Compound 148]
[1]
  MIC PA173: B

## CC(C)N1CCc2c(O)c3c(c(F)c2C1)C[C@H]1C[C@H]2[C@H](N(C)C)C(O)=C(C(N)=O)C(=O)[C@@]2(O)C(O)=C1C3=O [Compound 300]
[1]
  MIC PA173: B

## CCC(C)N1CCc2c(O)c3c(c(F)c2C1)C[C@H]1C[C@H]2[C@H](N(C)C)C(O)=C(C(N)=O)C(=O)[C@@]2(O)C(O)=C1C3=O (some centres unmarked) [Compound 301]
[1]
  MIC PA173: B

## CC[C@@H](C)N1CCc2c(O)c3c(c(F)c2C1)C[C@H]1C[C@H]2[C@H](N(C)C)C(O)=C(C(N)=O)C(=O)[C@@]2(O)C(O)=C1C3=O [Compound 302]
[1]
  MIC PA173: B

## CN(C)[C@@H]1C(O)=C(C(N)=O)C(=O)[C@@]2(O)C(O)=C3C(=O)c4c(O)c5c(c(F)c4C[C@H]3C[C@@H]12)CN(CC(C)(C)C)CC5 [Compound 303]
[1]
  MIC PA173: B

## CCCN1CCc2c(O)c3c(c(F)c2C1)C[C@H]1C[C@H]2[C@H](N(C)C)C(O)=C(C(N)=O)C(=O)[C@@]2(O)C(O)=C1C3=O [Compound 304]
[1]
  MIC PA173: B

## CC[C@H](C)N1CCc2c(O)c3c(c(F)c2C1)C[C@H]1C[C@H]2[C@H](N(C)C)C(O)=C(C(N)=O)C(=O)[C@@]2(O)C(O)=C1C3=O [Compound 305]
[1]
  MIC PA173: B

## CC(C)CN1CCc2c(O)c3c(c(F)c2C1)C[C@H]1C[C@H]2[C@H](N(C)C)C(O)=C(C(N)=O)C(=O)[C@@]2(O)C(O)=C1C3=O [Compound 306]
[1]
  MIC PA173: B

## CCN1CCc2c(O)c3c(c(F)c2C1)C[C@H]1C[C@H]2[C@H](N(C)C)C(O)=C(C(N)=O)C(=O)[C@@]2(O)C(O)=C1C3=O [Compound 307]
[1]
  MIC PA173: B

## CN(C)[C@@H]1C(O)=C(C(N)=O)C(=O)[C@@]2(O)C(O)=C3C(=O)c4c(O)c5c(c(F)c4C[C@H]3C[C@@H]12)CN(C(C)(C)C)CC5 [Compound 308]
[1]
  MIC PA173: B

## CC(C)[C@H]1C(=O)Nc2c(O)c3c(c(F)c2CN1C)C[C@H]1C[C@H]2[C@H](N(C)C)C(O)=C(C(N)=O)C(=O)[C@@]2(O)C(O)=C1C3=O [Compound 401]
[2]
  MIC KP457: C

## CN(C)[C@@H]1C(O)=C(C(N)=O)C(=O)[C@@]2(O)C(O)=C3C(=O)c4c(O)c5c(c(F)c4C[C@H]3C[C@@H]12)CN(C)C(C)(C)C(=O)N5 [Compound 402]
[2]
  MIC KP457: C

## CN(C)[C@@H]1C(O)=C(C(N)=O)C(=O)[C@@]2(O)C(O)=C3C(=O)c4c(O)c5c(c(F)c4C[C@H]3C[C@@H]12)CN1C[C@@H](F)C[C@H]1C(=O)N5 [Compound 404]
[2]
  MIC KP457: C

## CN(C)[C@@H]1C(O)=C(C(N)=O)C(=O)[C@@]2(O)C(O)=C3C(=O)c4c(O)c5c(c(F)c4C[C@H]3C[C@@H]12)CN1CCC[C@@H]1C(=O)N5 [Compound 405]
[1]
  MIC PA173: B

## C[C@@H]1C(=O)Nc2c(O)c3c(c(F)c2CN1C)C[C@H]1C[C@H]2[C@H](N(C)C)C(O)=C(C(N)=O)C(=O)[C@@]2(O)C(O)=C1C3=O [Compound 406]
[1]
  MIC PA173: B

## CC(C)C[C@@H]1CNc2c(O)c3c(c(F)c2CN1)C[C@H]1C[C@H]2[C@H](N(C)C)C(O)=C(C(N)=O)C(=O)[C@@]2(O)C(O)=C1C3=O [Compound 408]
[1]
  MIC PA173: B

## CN(C)[C@@H]1C(O)=C(C(N)=O)C(=O)[C@@]2(O)C(O)=C3C(=O)c4c(O)c5c(c(F)c4C[C@H]3C[C@@H]12)CN1CCCC[C@@H]1C(=O)N5 [Compound 410]
[2]
  MIC KP457: C

## CN(C)[C@@H]1C(O)=C(C(N)=O)C(=O)[C@@]2(O)C(O)=C3C(=O)c4c(O)c5c(c(F)c4C[C@H]3C[C@@H]12)CN1CCC[C@H]1C(=O)N5 [Compound 412]
[1]
  MIC PA173: B

## CN(C)[C@@H]1C(O)=C(C(N)=O)C(=O)[C@@]2(O)C(O)=C3C(=O)c4c(O)c5c(c(F)c4C[C@H]3C[C@@H]12)CN1C[C@H](O)C[C@H]1C(=O)N5 [Compound 414]
[2]
  MIC KP457: C

## CN(C)[C@@H]1C(O)=C(C(N)=O)C(=O)[C@@]2(O)C(O)=C3C(=O)c4c(O)c5c(c(F)c4C[C@H]3C[C@@H]12)CN1C[C@@H](O)C[C@H]1C(=O)N5 [Compound 417]
[2]
  MIC KP457: C

## CN(C)[C@@H]1C(O)=C(C(N)=O)C(=O)[C@@]2(O)C(O)=C3C(=O)c4c(O)c5c(c(F)c4C[C@H]3C[C@@H]12)CN1CCCC[C@H]1C(=O)N5 [Compound 418]
[2]
  MIC KP457: C

## CN(C)[C@@H]1C(O)=C(C(N)=O)C(=O)[C@@]2(O)C(O)=C3C(=O)c4c(O)c5c(c(F)c4C[C@H]3C[C@@H]12)CN(C(C)(C)C)CC(=O)N5 [Compound 421]
[1]
  MIC PA173: B

## CN(C)[C@@H]1C(O)=C(C(N)=O)C(=O)[C@@]2(O)C(O)=C3C(=O)c4c(O)c5c(c(F)c4C[C@H]3C[C@@H]12)CN(C)C1(CC1)C(=O)N5 [Compound 422]
[2]
  MIC KP457: C

## CN(C)[C@@H]1C(O)=C(C(N)=O)C(=O)[C@@]2(O)C(O)=C3C(=O)c4c(O)c5c(c(F)c4C[C@H]3C[C@@H]12)CN(C)[C@@H](CO)C(=O)N5 [Compound 423]
[1]
  MIC PA173: B

## CN(C)[C@@H]1C(O)=C(C(N)=O)C(=O)[C@@]2(O)C(O)=C3C(=O)c4c(O)c5c(c(F)c4C[C@H]3C[C@@H]12)CN(C)[C@@H](Cc1ccccc1)C(=O)N5 [Compound 424]
[1]
  MIC PA173: B

## CN(C)[C@@H]1C(O)=C(C(N)=O)C(=O)[C@@]2(O)C(O)=C3C(=O)c4c(O)c5c(c(F)c4C[C@H]3C[C@@H]12)CN(C)C1(CCCC1)C(=O)N5 [Compound 425]
[2]
  MIC KP457: C

## CCCN1Cc2c(F)c3c(c(O)c2NC[C@H]1CC(C)C)C(=O)C1=C(O)[C@]2(O)C(=O)C(C(N)=O)=C(O)[C@@H](N(C)C)[C@@H]2C[C@@H]1C3 [Compound 427]
[1]
  MIC PA173: B

## CC(C)C[C@@H]1CNc2c(O)c3c(c(F)c2CN1C)C[C@H]1C[C@H]2[C@H](N(C)C)C(O)=C(C(N)=O)C(=O)[C@@]2(O)C(O)=C1C3=O [Compound 429]
[1]
  MIC PA173: B
